# Measured values: PubChem BioAssay AID588855 (National Center for Advancing Translational Sciences (NCATS), 2011)
# The campaign covered roughly 410,000 compounds. About 5,000 (1.2%) were called active. This list was built around the results that the source calls inconclusive (neither active nor inactive); the mix of calls is not that of the screen. Calls come from the whole dose curve; as a rule, active = well fitted inhibition curve with a large enough effect; inconclusive = small, poorly fitted or top-dose-only effect; inactive = no such curve, though single readings can be large or run the other way. Potencies of inconclusive entries are doubtful fits and often do not repeat.
# Test: qHTS for Inhibitors of TGF-b; note: nearly all actives have a fitted effect of over 65% in size
# Settings: HepG2 CAGA-GFP TGF-b/SMAD3 reporter, GFP fluorescence, 18 h, TGF-beta stimulated, 500 pg/mL final; series mostly up to 46.1 µM
# Procedure, shortened: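 Read-out: total well GFP (ex488/em500-530) summed from mean per-cell fluorescence. Cells: HEPG2 CAGA-GFP, 1% FBS DMEM, 18 h at 37 degrees C with 500 pg/mL final TGF-beta. Unstimulated wells served as the full-inhibition control; stimulated DMSO wells = 0%.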
# Potency is the fitted concentration of half-maximal effect; tags give direction and shape of the fitted curve.
row,SMILES,Potency
1,COc1cc(C(=O)OCC#N)ccc1OCc1c(C)noc1C,"inconclusive: 5.01 µM [inhibitor, full curve, poor fit]"
2,CCCc1ccc(C(C)NC(=O)c2cnccn2)cc1 (stereo not drawn),"inconclusive: 3.98 µM [inhibitor, single point]"
3,CN(Cc1ccc(Cl)s1)C(=O)CNC(=O)CNC(=O)c1ccc(Cl)cc1Cl,"inconclusive: 20 µM [inhibitor, partial curve, poor fit]"
4,O=C(CN1C2=NCCN2c2ccccc21)C12CC3CC(CC(C3)C1)C2,inactive
5,CC1CCCCC1NC(=S)NC(=O)c1ccccc1Br (stereo not drawn),"inconclusive: 11.2 µM [inhibitor, partial curve]"
6,CC1Oc2ccccc2N(CC(=O)NCc2cccs2)C1=O (stereo not drawn),"inconclusive: 0.112 µM [inhibitor, full curve, poor fit]"
7,COC(=O)[C@@]1(Cc2ccccc2)[C@H]2C(=O)N(Cc3ccccc3)C(=O)[C@H]2[C@H]2CN=C(SCc3ccc(C)cc3)N21,"inconclusive: 5.62 µM [inhibitor, partial curve]"
8,CCN(CC)CCCC(C)NC(=O)c1cc(=O)c2ccccc2o1 (stereo not drawn),inactive
9,CN(C(=O)c1cccc(NC(=O)Cc2ccc(NC(=O)C3CCCN(S(=O)(=O)c4cccc([N+](=O)[O-])c4)C3)cc2)c1)C1CCCCC1 (stereo not drawn),"inconclusive: 11.2 µM [inhibitor, partial curve, poor fit]"
10,O=C1c2ccccc2C(=O)N1CCCCCCc1ccccc1,"inconclusive: 3.98 µM [inhibitor, full curve]"
11,CCOC(=O)c1ccc2c(c1)nc(-c1ccc(F)cc1)c1nccn12,inactive
12,Nc1cccc2nc3ccccc3cc12,"inconclusive: 17.8 µM [inhibitor, single point]"
13,CCc1nc2ccccc2c(C(=O)OCC(=O)Nc2cccc(S(=O)(=O)N3CCOCC3)c2)c1C,"inconclusive: 14.1 µM [inhibitor, single point]"
14,O=C(CSC1=Nc2ccccc2N=C(c2ccc(F)cc2)C1)NCc1ccc(F)cc1,"inconclusive: 3.55 µM [inhibitor, single point]"
15,COCCNc1ncnc2c1ncn2[C@H]1CN(Cc2ccc(-c3ccccc3)cc2)C[C@@H](CO)O1,"inconclusive: 35.5 µM [inhibitor, partial curve, poor fit]"
16,O=C(Oc1cccc2cccnc12)c1ccc(N2C(=O)C3C4CCC(C4)C3C2=O)cc1 (stereo not drawn),"inconclusive: 7.08 µM [inhibitor, partial curve, poor fit]"
17,CNCc1ccccc1Sc1cccc2ccccc12,"inconclusive: 22.4 µM [inhibitor, single point]"
18,CCOc1ccccc1NC(=O)C(=O)NCCC1=CCCCC1,"inconclusive: 20 µM [inhibitor, single point]"
19,Cc1cc(C)cc(OC(=O)CS(=O)c2ccc(C(F)(F)F)cc2[N+](=O)[O-])c1 (stereo not drawn),"inconclusive: 11.2 µM [inhibitor, partial curve, poor fit]"
20,Cc1cccc(Cn2cnc3c(nnn3Cc3ccc(F)cc3)c2=O)c1,inactive
21,CCOC(=O)C1=C(CS(=O)(=O)c2ccc(C)cc2)NC(=O)NC1c1ccc(C(C)C)cc1 (stereo not drawn),"inconclusive: 17.8 µM [inhibitor, single point]"
22,CN(C(=O)c1ccc2c(c1)N(Cc1cccc(Cl)c1)C(=O)c1ccccc1S2=O)C1CCCCC1 (stereo not drawn),"inconclusive: 35.5 µM [inhibitor, single point]"

row,SMILES,Potency
1,Cc1ccc(CSCc2ccc(C(=O)NCCc3ccc(Cl)cc3)o2)cc1,"inconclusive: 11.2 µM [inhibitor, partial curve, poor fit]"
2,COc1ccccc1N1CCN(CC(=O)Nc2ccc3c(c2)OCCO3)CC1,"inconclusive: 7.94 µM [inhibitor, partial curve, poor fit]"
3,Cc1cc(C)cc(N2C(=O)CSC23C(=O)N(CC(=O)NCCc2ccccc2)c2ccccc23)c1 (stereo not drawn),inactive
4,COc1ccc(/C=C2\SC(=O)N(CC(=O)Nc3ccc(F)cc3)C2=O)cc1O,"inconclusive: 35.5 µM [inhibitor, single point]"
5,OC(COc1ccccc1)CN1CCC(Cc2ccccc2)CC1 (stereo not drawn),inactive
6,CNc1cc([N+](=O)[O-])ccc1N/C=C/C(=O)c1ccc2c(c1)OCO2,"inconclusive: 0.501 µM [inhibitor, full curve, poor fit]"
7,CCn1c(N2CCN(S(=O)(=O)c3ccc(F)cc3)CC2)nc2ccccc21,inactive
8,COC(=O)CN1C(=O)C(O)(CC(=O)c2ccc(C)cc2)c2ccccc21 (stereo not drawn),inactive
9,Cc1ccc2c(CN3CCCCC3)cc(=O)oc2c1,inactive
10,CCOC(=O)C/C(=N\Nc1ncnc2ccccc12)c1ccccc1,inactive
11,CN1C(=O)[C@@H]2[C@H](C1=O)[C@@H]1C(=O)Nc3ccccc3C(=O)N1[C@@H]2c1cccc(Br)c1,"inconclusive: 0.199 µM [inhibitor, partial curve, poor fit]"
12,Cc1ccc2[nH]c3c(=O)n(CCN4CCOCC4)cnc3c2c1,inactive
13,Cc1nnc(SCc2ccc(Cl)cc2)c2cc3occc3n12,"inconclusive: 20 µM [inhibitor, partial curve, poor fit]"
14,CCn1nc(C)c(/C=N/NC(=O)c2ccoc2C)c1C,inactive
15,O=c1c2ccccc2c(C=Nc2ccc(Cl)cn2)c(O)n1-c1cc(Cl)ccc1N1CCOCC1,inactive
16,O=C(c1c[nH]c(C(=O)C(Cl)(Cl)Cl)c1)c1c(F)cccc1F,inactive
17,O=C(CN1C(=O)C2C3C=CC(C3)C2C1=O)Nc1nc(-c2ccccn2)cs1 (stereo not drawn),"inconclusive: 22.4 µM [inhibitor, single point]"
18,O=C1C(Nc2ccc(O)cc2)=C/C(=N/S(=O)(=O)c2cccs2)c2ccccc21,active: 1 µM
19,CCOc1ccc(NC(=O)CSc2nnc(-c3ccccc3Cl)n2Cc2ccco2)cc1,inactive
20,CC(Sc1nnc2c(n1)[nH]c1ccccc12)C(=O)N(C)C1CCCCC1 (stereo not drawn),"inconclusive: 12.6 µM [inhibitor, single point]"
21,O=C(c1cccs1)N1N=C(c2ccccc2)CC1c1ccccc1O (stereo not drawn),"inconclusive: 35.5 µM [inhibitor, single point]"
